From the supplement of paper PMC7125110
± gives the standard error. Variants at the background level are over-represented here.

B1: glmS ribozyme (parent)
chain: AUAAAAGCGCCAGAACUACAGAAAUGUAGUUGACGAGGAGGAGGUUUAUCGAAUUUUCGGCGGAUGCCUCCAAA

Tests used:
Conditions in all cases: with glucosamine-6-phosphate
[1] = variants of: B1; experiment: self-cleavage kobs at 40 uM GlcN6P; higher = faster cleavage; RNA array
Method in brief: (§1)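 Barcoded ribozyme variants, transcribed in situ by E. coli RNA polymerase on sequenced MiSeq chips, were followed via a hybridised Cy3 probe at 37 °C. Glucosamine-6-phosphate ranged from 40 μM to 10 mM in HEPES/KCl/Mg(OAc)2 buffer. kobs came from decay fits to per-tile medians, and kcat and KM from weighted Michaelis–Menten fits.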

[2] = variants of: B1; experiment: self-cleavage kobs at 640 uM GlcN6P; higher = faster cleavage; RNA array
Method in brief: as §1

[3] = variants of: B1; experiment: self-cleavage kobs at 160 uM GlcN6P; higher = faster cleavage; RNA array
Method in brief: as §1

[4] = variants of: B1; experiment: self-cleavage kobs at 10000 uM GlcN6P; higher = faster cleavage; RNA array
Method in brief: as §1

[5] = variants of: B1; experiment: self-cleavage kobs at 2500 uM GlcN6P; higher = faster cleavage; RNA array
Method in brief: as §1

[6] = variants of: B1; experiment: kcat; higher = faster cleavage; RNA array
Method in brief: as §1

| Variant | self-cleavage kobs at 40 uM GlcN6P [1] [s⁻¹] | self-cleavage kobs at 640 uM GlcN6P [2] [s⁻¹] | self-cleavage kobs at 160 uM GlcN6P [3] [s⁻¹] | self-cleavage kobs at 10000 uM GlcN6P [4] [s⁻¹] | self-cleavage kobs at 2500 uM GlcN6P [5] [s⁻¹] | kcat [6] [s⁻¹] |
| --- | --- | --- | --- | --- | --- | --- |
| C8A A39C | < 1e-05 | < 1e-05 | < 1e-05 | < 1e-05 |  |  |
| G9C U54C | < 1e-05 | < 1e-05 | < 1e-05 | < 1e-05 |  |  |
| C10G A14G G29U U30C A36C G43U | < 1e-05 | < 1e-05 |  |  |  |  |
| C10G C34A C61G | < 1e-05 |  |  |  |  |  |
| A6G C8A C58G | < 1e-05 |  |  | < 1e-05 |  |  |
| G7C G51A | < 1e-05 | < 1e-05 | < 1e-05 | < 1e-05 |  |  |
| G7U G44U A48G C70G | < 1e-05 | < 1e-05 |  | < 1e-05 | < 1e-05 |  |
| G37A G63A | < 1e-05 |  | < 1e-05 | < 1e-05 |  | < 1e-05 |
| C8U C11U U57G C67G | 0.000617 ± 0.0003 | 7.99e-05 ± 3.8e-05 |  | 0.000608 ± 0.00023 |  |  |
| A6G A42U U46A | < 1e-05 |  |  | < 1e-05 |  |  |
| A6G A48G A53C | < 1e-05 |  |  | < 1e-05 |  |  |
| C11G G63A |  | < 1e-05 | < 1e-05 |  |  | < 1e-05 |
| A6U G13C C16A U45G | < 1e-05 |  |  |  |  |  |
| U30C G51U | < 1e-05 |  |  | < 1e-05 |  | < 1e-05 |
| C8G A36U | < 1e-05 | < 1e-05 | < 1e-05 | < 1e-05 | < 1e-05 |  |
| A6G C16U G32C G41U C68U | < 1e-05 | < 1e-05 |  |  |  |  |
| C8G A42C | < 1e-05 | < 1e-05 | < 1e-05 | < 1e-05 | < 1e-05 |  |
| C8U G59U A64G | < 1e-05 |  |  | < 1e-05 |  |  |
| G43U U69A |  |  |  |  |  | < 1e-05 |
| A6U G59A | < 1e-05 | < 1e-05 |  |  |  |  |
| A39U C68A | < 1e-05 |  |  |  |  | < 1e-05 |
| C10A U47C U54C G66U | < 1e-05 |  |  | < 1e-05 |  |  |
| C10A G44A | < 1e-05 | < 1e-05 |  | < 1e-05 |  |  |
| G37U G66C |  |  |  |  |  | < 1e-05 |

| Variant | self-cleavage kobs at 40 uM GlcN6P [1] [s⁻¹] | self-cleavage kobs at 640 uM GlcN6P [2] [s⁻¹] | self-cleavage kobs at 160 uM GlcN6P [3] [s⁻¹] | self-cleavage kobs at 10000 uM GlcN6P [4] [s⁻¹] | self-cleavage kobs at 2500 uM GlcN6P [5] [s⁻¹] | kcat [6] [s⁻¹] |
| --- | --- | --- | --- | --- | --- | --- |
| C10U A12G A52U | < 1e-05 | < 1e-05 |  | < 1e-05 | < 1e-05 | < 1e-05 |
| C8U A33U G37A U46G | < 1e-05 |  |  |  |  |  |
| A15C G38C |  |  |  | < 1e-05 | < 1e-05 | < 1e-05 |
| A15C G38U |  |  |  | < 1e-05 |  | < 1e-05 |
| G43C G59A |  |  | < 1e-05 |  |  | < 1e-05 |
| C10A C34G | < 1e-05 | < 1e-05 |  | < 1e-05 | < 1e-05 |  |
| A39U A52C | < 1e-05 |  | < 1e-05 |  |  | < 1e-05 |
| A6G C34U | < 1e-05 | < 1e-05 | < 1e-05 | < 1e-05 | < 1e-05 |  |
| A6G U49A A53G U57C | < 1e-05 |  |  | < 1e-05 |  |  |
| G9C A39G G44U | < 1e-05 |  |  |  | < 1e-05 |  |
| G7U U31C C50A U56A | < 1e-05 |  |  | < 1e-05 |  |  |
| A33G G51C |  |  |  | < 1e-05 |  | < 1e-05 |
| G9U G38C | < 1e-05 | < 1e-05 | < 1e-05 | < 1e-05 | < 1e-05 |  |
| A6U A53C | < 1e-05 |  |  |  |  |  |
| G43A G60A |  |  |  |  |  | < 1e-05 |
| C8U A33U | < 1e-05 | < 1e-05 |  |  |  | < 1e-05 |
| G63C C70G | < 1e-05 |  |  | < 1e-05 |  | < 1e-05 |
| C8A C11U | < 1e-05 | < 1e-05 |  |  | < 1e-05 |  |
| G7C U49A U54A | < 1e-05 | < 1e-05 | < 1e-05 | < 1e-05 | < 1e-05 |  |
| G41U A52C | < 1e-05 | < 1e-05 | < 1e-05 |  |  | < 1e-05 |
| G29U G51U | < 1e-05 | < 1e-05 | < 1e-05 |  | < 1e-05 | < 1e-05 |
| C8U U45A U54C U57G | < 1e-05 |  |  |  |  |  |
| C8G G41C C70G | < 1e-05 | < 1e-05 | < 1e-05 | < 1e-05 |  |  |
| C8G G9C G29U A52G A64C | < 1e-05 |  |  | < 1e-05 |  |  |

| Variant | self-cleavage kobs at 40 uM GlcN6P [1] [s⁻¹] | self-cleavage kobs at 640 uM GlcN6P [2] [s⁻¹] | self-cleavage kobs at 160 uM GlcN6P [3] [s⁻¹] | self-cleavage kobs at 10000 uM GlcN6P [4] [s⁻¹] | self-cleavage kobs at 2500 uM GlcN6P [5] [s⁻¹] | kcat [6] [s⁻¹] |
| --- | --- | --- | --- | --- | --- | --- |
| U49A C68U |  |  |  |  |  | < 1e-05 |
| G7U U46A | < 1e-05 | < 1e-05 | < 1e-05 | < 1e-05 | < 1e-05 |  |
| G40C G60C |  | < 1e-05 |  |  | < 1e-05 | < 1e-05 |
| G51A G60U | < 1e-05 | < 1e-05 |  | < 1e-05 |  | < 1e-05 |
| A36U U55A C61A | < 1e-05 |  |  |  |  | < 1e-05 |
| G7U C8U C67U | < 1e-05 |  |  |  |  |  |
| A14C A36U |  |  |  | < 1e-05 | < 1e-05 | < 1e-05 |
| G9C U49A | < 1e-05 | < 1e-05 |  | < 1e-05 | < 1e-05 |  |
| A36C G37U |  |  |  | < 1e-05 |  | < 1e-05 |
| G9U A33U G38C G51A C67A | < 1e-05 |  |  |  |  |  |
| G9C G32A | < 1e-05 |  | < 1e-05 | < 1e-05 | < 1e-05 |  |
| A6G U47C | < 1e-05 | < 1e-05 | < 1e-05 |  |  |  |
| G9A A12G G13U A15U C34U U55A C70U | < 1e-05 |  |  |  |  |  |
| G7A C16A | < 1e-05 |  | < 1e-05 | < 1e-05 |  | < 1e-05 |
| A6U C58A | < 1e-05 |  |  |  |  |  |
| G9U C16U G43A G60U | < 1e-05 |  |  | < 1e-05 |  |  |
| G38C C71G |  |  |  | < 1e-05 |  | < 1e-05 |
| C16G G60C |  |  |  |  |  | < 1e-05 |
| A6C G40U A48C | < 1e-05 |  |  |  |  |  |
| G7C C8A U45G U65A | < 1e-05 |  |  | < 1e-05 | < 1e-05 |  |
| G7U C34A | < 1e-05 | < 1e-05 | < 1e-05 | < 1e-05 |  |  |
| U31C A36C |  |  |  |  |  | < 1e-05 |
| G9C U49C A52U | < 1e-05 |  |  | < 1e-05 |  |  |
| C58G C61A G63C A64U |  |  |  |  |  | < 1e-05 |

| Variant | self-cleavage kobs at 40 uM GlcN6P [1] [s⁻¹] | self-cleavage kobs at 640 uM GlcN6P [2] [s⁻¹] | self-cleavage kobs at 160 uM GlcN6P [3] [s⁻¹] | self-cleavage kobs at 10000 uM GlcN6P [4] [s⁻¹] | self-cleavage kobs at 2500 uM GlcN6P [5] [s⁻¹] | kcat [6] [s⁻¹] |
| --- | --- | --- | --- | --- | --- | --- |
| A6G U45C A53C G62C | < 1e-05 |  |  | < 1e-05 |  |  |
| A6G A36C A42C | < 1e-05 |  |  | < 1e-05 | < 1e-05 |  |
| G7C A52U | < 1e-05 | < 1e-05 | < 1e-05 |  | < 1e-05 |  |
| G37U A48G |  | < 1e-05 |  |  |  | < 1e-05 |
| C8A C10G A15U | < 1e-05 |  |  | < 1e-05 |  |  |
| A6C A12G | < 1e-05 | < 1e-05 | < 1e-05 |  |  |  |
| A6G G35U | < 1e-05 | < 1e-05 | < 1e-05 | < 1e-05 | < 1e-05 |  |
| G9A C67G | < 1e-05 |  |  | < 1e-05 |  | < 1e-05 |
| C11U C68A | < 1e-05 |  |  | < 1e-05 |  | < 1e-05 |
| C8A U30A G60U G66U | < 1e-05 |  |  |  |  |  |
| C10G G43A G62U | < 1e-05 | < 1e-05 |  |  |  |  |
| A6G A14U C68A | < 1e-05 | < 1e-05 | < 1e-05 | < 1e-05 |  |  |
| G7A C11U U31A A33G G43C U56A | < 1e-05 |  |  |  |  |  |
| G9C G35C | < 1e-05 | < 1e-05 | < 1e-05 | < 1e-05 | < 1e-05 |  |
| G9A U54C | < 1e-05 | < 1e-05 | < 1e-05 |  |  |  |
| G9C G32C C34U G41C U47G A48G A64U | < 1e-05 |  |  | < 1e-05 |  |  |
| A6C G37U U45C C61A | < 1e-05 |  |  |  |  |  |
| G35U U54C |  | < 1e-05 | < 1e-05 |  |  | < 1e-05 |
| A6C A52U C67G | < 1e-05 |  |  |  |  |  |
| G7A A48C A52U | < 1e-05 |  |  |  |  |  |
| C8G C10A | < 1e-05 | < 1e-05 | < 1e-05 | < 1e-05 | < 1e-05 |  |
| G38A U54A |  |  |  |  | < 1e-05 | < 1e-05 |
| G7C C11U G29A G40A A42U G62U | < 1e-05 |  |  |  |  |  |
| G7C C16A U49A | < 1e-05 |  |  | < 1e-05 | < 1e-05 |  |
